Data on 24 compounds can be found in publication PMC4336329 (PLoS ONE, 2015).

Screen size: about 310,000 compounds; about 14,000 (4.5%) showed an effect of 50% or more. Effects have a minus sign here. The list shows a part of the results.
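Also: peak tail current of the secondary pulse compared with the same well before compound.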

In this assay the target is human ether-à-go-go-related gene (hERG) potassium channel (human, UniProt Q12809). The assay is described as follows: primary screen, population patch clamp on CHO cells stably expressing hERG.
human ether-à-go-go-related gene (hERG) potassium channel, sequence (Q12809 whole entry, looked up): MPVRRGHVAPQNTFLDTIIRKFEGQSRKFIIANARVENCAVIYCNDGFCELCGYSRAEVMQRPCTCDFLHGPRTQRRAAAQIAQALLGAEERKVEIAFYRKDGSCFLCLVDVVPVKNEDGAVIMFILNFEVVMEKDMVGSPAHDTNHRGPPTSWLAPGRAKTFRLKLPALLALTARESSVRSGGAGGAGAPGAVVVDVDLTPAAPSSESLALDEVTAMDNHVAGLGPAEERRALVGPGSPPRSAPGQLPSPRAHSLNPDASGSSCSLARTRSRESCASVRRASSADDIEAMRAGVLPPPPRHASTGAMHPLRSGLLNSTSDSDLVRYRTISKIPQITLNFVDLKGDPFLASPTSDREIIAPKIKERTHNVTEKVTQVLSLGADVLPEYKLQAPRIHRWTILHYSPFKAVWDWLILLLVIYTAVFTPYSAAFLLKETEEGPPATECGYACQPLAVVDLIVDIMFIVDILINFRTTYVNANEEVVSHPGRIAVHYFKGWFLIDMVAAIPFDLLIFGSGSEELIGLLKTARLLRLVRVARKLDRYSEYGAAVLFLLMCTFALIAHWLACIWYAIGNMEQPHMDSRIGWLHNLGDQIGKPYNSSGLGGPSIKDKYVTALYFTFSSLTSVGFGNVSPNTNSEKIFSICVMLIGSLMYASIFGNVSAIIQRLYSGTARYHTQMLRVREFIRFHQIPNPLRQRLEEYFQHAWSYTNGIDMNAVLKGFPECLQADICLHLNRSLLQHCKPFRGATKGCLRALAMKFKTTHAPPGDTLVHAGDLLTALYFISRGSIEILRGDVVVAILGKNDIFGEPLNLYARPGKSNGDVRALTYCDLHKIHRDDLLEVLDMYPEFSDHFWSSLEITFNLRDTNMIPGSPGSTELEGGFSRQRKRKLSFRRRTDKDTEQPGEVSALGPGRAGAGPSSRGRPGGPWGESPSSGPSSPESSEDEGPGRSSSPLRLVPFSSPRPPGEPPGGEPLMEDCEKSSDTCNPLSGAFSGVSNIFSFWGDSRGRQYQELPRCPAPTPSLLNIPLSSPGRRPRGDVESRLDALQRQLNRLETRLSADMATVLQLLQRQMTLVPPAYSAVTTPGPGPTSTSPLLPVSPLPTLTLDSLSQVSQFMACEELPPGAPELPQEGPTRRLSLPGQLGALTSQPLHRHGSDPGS
As for `CSc1ncccc1C(=O)Nc1ccc2c(c1)OCO2`, the “hERG current change (%, negative = inhibition) at 10uM” value was determined as 11.4%.
The value for `CCOn1c(SC(C)C)nc2ccccc2c1=O` was -5.49%; that for `CC(=O)C1=C(C)Nc2ncnn2C1c1ccc(Cl)cc1Cl` (stereo not drawn) was 2.23%.
The value for `O=C1c2oc3ccc(F)cc3c(=O)c2C(c2ccc(F)cc2)N1CCCN1CCOCC1` (stereo not drawn) was -30.1%.
The value for `Cc1ccc(-c2nc(CS(=O)(=O)CC(=O)NCCN3CCOCC3)c(C)o2)cc1` was 7.65%; that for `O=C(OCc1cc(=O)n2c(n1)sc1ccccc12)c1cccc(O)c1` was 9.1%.
As for `O=C(NCCn1cc(SCc2ccc(F)cc2)c2ccccc21)c1ccccc1F`, the “hERG current change (%, negative = inhibition) at 10uM” value is listed as -1.34%.
The value for `O=C(COC(=O)c1cc([N+](=O)[O-])ccc1N1CCOCC1)Nc1cc(F)ccc1F` was -49.8%; that for `CCOC(=O)C1CCN(C(=O)c2cc(S(=O)(=O)N3CCCCC3)ccc2C)CC1` was -7.08%; that for `Cc1nc2ccccc2n1-c1nc(-c2ccco2)cc(C(F)(F)F)n1` was 5.46%.
The value for `C=C(C)COc1ccc(-c2ncncc2-c2ccc(Cl)cc2)c(O)c1` was 13.9%; that for `O=C(Nc1ccc(Cl)c(Cl)c1)N1CCSC1c1ccco1` (stereo not drawn) was -5.48%.
The value for `CN(C)CCNC(=O)CNC(=S)N(CCCN1CCOCC1)Cc1cccs1` was 12.1%.
With `Cc1[nH]n(-c2ccccc2)c(=O)c1/C=N/O`, the “hERG current change (%, negative = inhibition) at 10uM” value was -6.11%.
The value for `Cc1nc(-c2ccc(Cl)cc2)sc1C(=O)NNC(=O)C(C)C` was 10.7%.
For the compound `CCNC(=O)c1c(O)c2ccccc2[nH]c1=O`, the “hERG current change (%, negative = inhibition) at 10uM” value is given as -62.5%.
The value for `COc1cc(NCCCCCCCN)c2ncccc2c1.O=C(O)CCC(=O)O` was 8.46%; that for `Cc1ccc(S(=O)(=O)c2nc(-c3ccccc3)oc2N2CCCC2)cc1` was 16.4%; that for `COc1cccc(C(=O)NNC(=O)C(=O)Nc2ccc(C)c(Cl)c2)c1` was 13.7%.
The value for `CCC/C(O)=C1\C(=O)CCCC1=NCCc1c(C)[nH]c2ccc(OC)cc12` was 13.1%; that for `COc1ccc(C2C(C(=O)c3cccs3)=C(O)C(=O)N2c2cccc(C)n2)cc1` (stereo not drawn) was -3.18%.
The value for `CC/C(O)=C1\C(=O)CC(c2ccccc2)CC1=NCCc1c(C)[nH]c2ccc(C)cc12` (stereo not drawn) was -0.144%; that for `COc1cc(C(=O)NCC2CCCO2)ccc1OCc1ccccc1Cl` (stereo not drawn) was -30.7%.
With `CC12CCC(C(=O)Nc3nc4ccc(Br)cc4s3)(OC1=O)C2(C)C` (stereo not drawn), the “hERG current change (%, negative = inhibition) at 10uM” value is -2.78%.
